According to PubChem BioAssay AID1745853 (National Center for Advancing Translational Sciences (NCATS), 2022):
Values joined by “and” are separate entries in the source; they are usually repeats but may differ in a detail not shown here. Equal entries are not always repeated. This is one part of the list. Further columns of the screen follow, without active or inactive calls.

Tests used:
Experiment in all cases: Primary Screen for Target Class Profiling of Small Molecule Inhibitors of Methyltransferases
[1] = target: Glycine N-methyltransferase (Homo sapiens) (UniProt Q14749); settings: purified enzyme, MTase-Glo SAH luminescence; measured here: GNMT inhibition; at 40 µM; stronger effect = lower value
Method in brief: (§1)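 Each enzyme was reacted with SAM and its substrate, with compounds tested once at 40 uM; SAH formed was read by MTase-Glo luminescence.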

[2] = target: Guanidinoacetate N-methyltransferase (Homo sapiens) (UniProt Q14353); settings: purified enzyme, MTase-Glo SAH luminescence; measured here: GAMT inhibition; at 40 µM; stronger effect = lower value
Method in brief: as §1

[3] = target: Histamine N-methyltransferase (Homo sapiens) (UniProt P50135); settings: purified enzyme, MTase-Glo SAH luminescence; measured here: HNMT inhibition; at 40 µM; stronger effect = lower value
Method in brief: as §1

[4] = target: Nicotinamide N-methyltransferase (Homo sapiens) (UniProt P40261); settings: purified enzyme, MTase-Glo SAH luminescence; measured here: NNMT inhibition; at 40 µM; stronger effect = lower value
Method in brief: as §1

[5] = target: Phenylethanolamine N-methyltransferase (Homo sapiens) (UniProt P11086); settings: purified enzyme, MTase-Glo SAH luminescence; measured here: PNMT inhibition; at 40 µM; stronger effect = lower value
Method in brief: as §1
On the % scale 0 is the no-effect control and ±100 the full control effect.

| SMILES | activity change, negative = inhibition [1] | activity change, negative = inhibition [2] | activity change, negative = inhibition [3] | activity change, negative = inhibition [4] | activity change, negative = inhibition [5] |
| --- | --- | --- | --- | --- | --- |
| CCOC(=O)c1cc2n(n1)CC(C)(C(=O)NC1CCCC1)N(c1cc(C)ccc1OC)C2=O (stereo not drawn) | 6.57% | 0% | 5.35% | 4.52% | 4.75% |
| CCN1/C(=C/C(C)=O)Sc2ccc(OC)cc21 | -11.7% | 8.8% | 5.42% | -21% | -0.375% |
| C[C@H]1c2cccc(O)c2C(O)=C2C(=O)[C@]3(O)C(O)=C(C(N)=O)C(=O)[C@@H](N(C)C)[C@@H]3[C@@H](O)[C@@H]21 | -22.5% | -1.51% | 1.93% | -9.3% | -2.77% |
| CC(C)C1(O[C@@H]2O[C@H](CO)[C@@H](O)[C@H](O)[C@H]2O)CC=C(CO)CC1 (stereo partly drawn) | -2.73% | -5.5% | 3.35% | -13.8% | -13.4% |
| COc1ccc(CNC(=O)O[C@H]2COCCN(c3nc4ccccc4o3)C2)cc1 | -9.87% | -8.85% | -6.23% | -15.8% | -9.21% |
| O=C(NOCC(O)CO)c1ccc(F)c(F)c1Nc1ccc(I)cc1F (stereo not drawn) | -3.58% | 3.9% | 11.8% | -15.4% | 5.75% |
| CCOC(=O)c1cc2n(n1)CC(C)(C(=O)NCc1ccc(F)cc1)N(Cc1cccc(OC)c1)C2=O (stereo not drawn) | -6.68% | 0.756% | -3.63% | -8.44% | -8.47% |
| O=C(NCCCc1ccccc1)C1CCN(c2cc(C(F)(F)F)ncn2)CC1 | -6.59% | -7.63% | -2.85% | -11.1% | -7.89% |
| O=C(c1ccc(F)cc1)N1CCN(c2nc3ncccc3o2)CC1 | -8.38% | -12.2% | -4.54% | -18.2% | -12.6% |
| COc1cccc(N2CCN(c3ccc4nnc(CCC(=O)NCCCOC(C)C)n4n3)CC2)c1 | 5.36% | 0% | -0.618% | 1.28% | 4.44% |
| OCC1(O)CCCN(Cc2cnc(NCc3ccccc3)nc2)C1 (stereo not drawn) | 0.141% | 1.62% | 1.86% | -1.74% | 2.68% |
| Clc1ccccc1C1Nc2ccc3ccccc3c2C2C=CCC21 (stereo not drawn) | 9.44% | -4.8% | -6.13% | -3.04% | -11.4% |
| O=C(Cn1ccc2cc(S(=O)(=O)N3CCCCC3)ccc21)N1CCCCC1 | 4.52% | 3.72% | 7.34% | 7.09% | 3.75% |
| CC(C)OCCCn1c(=O)c2ccccc2n2c(SCC(=O)Nc3ccc(Cl)cc3)nnc12 | -2.28% | 4.39% | 2.92% | -2% | -0.183% |
| Cc1ccc(C)c(Cn2nc3n(C(C)C)c(=O)c4ccc(C(=O)NC5CCCC5)cc4n3c2=O)c1 | -3.17% | -0.487% | 0.246% | -3.85% | -0.937% |
| CC(=O)Nc1c2n(c3ccc(F)cc13)CC(C)(C(=O)NCCC(C)C)N(C1CCCCC1)C2=O (stereo not drawn) | -4.81% | 3.08% | 0.206% | -1.83% | -2.58% |
| CC(C)n1c(=O)c2ccc(C(=O)NC3CCCC3)cc2n2c(=O)n(CC(=O)N(C)c3ccccc3)nc12 | 2.41% | 0% | 9.03% | -3.62% | 1.66% |
| O=c1cc(-c2cccc(O)c2)oc2c(O)c(O)ccc12 |  | -1.74% |  | -8.91% | 5.44% |
| CCOC(=O)c1cc2n(n1)CC(C)(C(=O)NC1CCC(C)CC1)N(Cc1ccc(CC)cc1)C2=O (stereo not drawn) | -0.544% | 3.55% | 1.18% | -8.05% | -2.4% |
| COCc1nc(C2CC(N)C2)cc(N(C)Cc2noc3c2CCCC3)n1 (stereo not drawn) | -4.47% | -4.92% | -3.45% | -15% | -4.81% |
| COc1ccc2c(NC(=O)Nc3cccc(C(F)(F)F)n3)ccnc2c1 | -10.2% | -1.92% | -28.5% | -25.7% | -11.5% |
| COc1ccc(N2C(=O)c3cc4sccc4n3CC2(C)C(=O)NC2CCCCCC2)cc1OC (stereo not drawn) | 2.08% | 0.182% | 7.91% | -5.43% | 2.03% |
| Cc1cccc(N2CCN(CCNC(=O)CCc3nnc4n(CC(C)C)c(=O)c5ccccc5n34)CC2)c1C | -1.31% | 2.73% | 11.8% | 12.6% | 4.76% |
| Cc1ccc(CNC(=O)Cn2nc3n(CC(C)C)c(=O)c4ccc(C(=O)NC(C)C)cc4n3c2=O)cc1 | 3.33% | 0% | 5.85% | 1.21% | -0.109% |
| Cc1ccc(Cn2c(=O)c3ccccc3n3c(-c4ccccc4O)nnc23)cc1 | -8.86% | -0.488% | -0.509% | -7.15% | -12.7% |
| CC(=O)OC(C)C[N+](C)(C)C (stereo not drawn) | 4.06% | 11.3% | 10.6% | -4.27% | 2.52% |
| C=C(C)[C@@H](C)[C@H]1O[C@]23C[C@]4(CO2)C(CCC2[C@@]5(C)CC[C@H](O[C@@H]6OC[C@H](O)[C@H](O[C@@H]7O[C@H](CO)[C@@H](O)[C@H](O)[C@H]7O)[C@H]6O[C@@H]6O[C@@H](CO)[C@H](O)[C@H]6O)C(C)(C)C5CC[C@]24C)C3[C@@](C)(O)[C@@H]1OC(C)=O (stereo partly drawn) | 4.83% | 10.1% | 8.09% | -1.27% | 6.59% |
| CN(C)c1ccc(/C=C2\C(=O)Nc3ccccc32)cc1 | -17.5% and -15.7% | 7.29% and 4.59% | 2.23% and -0.232% | -106% and -85.6% and -76.7% | 24.8% and -9.87% and -8.79% |
| O[C@@H]1CN(CC2CC2)CC[C@H]1N1CCN(c2ccccc2F)CC1 | -6.14% | -10.9% | -4.22% | -14.5% | -10% |
| CC(C)Cc1nc(NC(=O)C[C@H]2NC(=O)c3ccccc3NC2=O)n[nH]1 | -5.19% | -2.74% | -1.32% | -3.37% | -9.42% |
